To fix the notation:
B1: tRNA (parent)
chain: CUCUCGGUAGCCAAGUUGGUUUAAGGCGCAAGACUUUAAUUUAUCACUACGAAAUCUUGAGAUCGGGCGUUCGACUCGCCCCCGGGAGAUUUUUUCCUCGAGCAA

Variants at the background level are over-represented here.

In this data set the parent is B1. Kind of data set: nonsense suppression (GFP-seq) (ratio to wild type); higher = more function; SUP4oc tRNA, yeast GFP reporter sort-seq. Put shortly:
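Sorted GFP/RFP bins of yeast were each Illumina-sequenced with a phred ≥30 cutoff; the cells held a genome-integrated ochre-suppressor tRNA variant from a library with ~3% random mutations, a galactose-driven GFP ochre reporter, and RFP. Culture was in raffinose/galactose medium containing 80 mg/L adenine. Nonsense suppression, termed GFPSEQ, is the median GFP/RFP of the bins weighted by each variant's estimated cell share per bin, relative to the unmutated parent tRNA, for variants reaching ≥100 reads and ≥30 cells.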
CUCUCGGUAGCCAAGUUGGUUUAAGGCGCAAGACUUUAAUUUAUCACUACGAAAUAUUGAGUUCGGGCGUUCGACGCACCCCCGGGAGAUUUUUUCCUCGAGCAA [C56A A62U U76G G78A]: the nonsense suppression is at most 0.026. With CUCUCGGUAGCCAAGUUGGGUUAAGGCGCAAGACUUUAAUUUAUCACUACGAAAUCUUGAGAUCGGGCCUUCGACUCGCCCCCGGGAGAUUUUUUCCUCGAGCAA [U20G G69C], the nonsense suppression was at most 0.026.

CUCUCGGUAGCCAAGUUAGUUUAAGGCGCAAGAUUUUAAUUUAUCACUACGAAAUCUUGAGAACGGGCAUUCGACUCGCCCCCGGGAGAUUUUUUCCUCGAGCAA [G18A C34U U63A G69A]: the nonsense suppression is at most 0.026. As to CUCUUGGUAGCCAAGUUGGUUUAAGGAGCAAGACUUUAAUUUAUCACUACGAAAUCUUGAGAUCGGGCGUUCGACUCGCCCCCGGGAGAUUUUUUCCUCGAGCAA [C5U C27A], the nonsense suppression was at most 0.026. Then CUUUCGGUAGCCAAGUUGGUUUAAGGCGCAGGACUUUAAUUUAUCACUACGAAAGCUUGAGAUCGGGCGUUCGACUCGCCCCCGGGAGAUUUUUUCCUCGAGCAA [C3U A31G U55G], with at most 0.026. Then CUCUCGGUAGCCAAGUUGGUUUAAGGCGCAAGACUUUAAUUUAUCACUACGAAAUCUUGAGAUCGGUCGUUCGCCUCGCCCCCGGGAGAUUUUUUCCUCGAGCAA [G67U A74C], with at most 0.026; and CUCUCGGUAGCCAAGUUGGUUUAAGGCGCAACACUUUAAUUUAUCACUACGAAAUCUUGAGAUCGGGCGUUCGACUCGCCGCCGGGAGAUUUUUUCCUCGAGCAA [G32C C81G], with at most 0.026. As for CUCUCGGUAGCCAAGCUGGUUUAAGGCGCAAGACUUUAAUUUAUCACUACGAAACCUUGAGUUCGGGCGUUCGACUCGCCCCCGGGAGAUUUUUUCCUCGAGCAA [U16C U55C A62U], the nonsense suppression is at most 0.026. Then CUCUCGGUAGCCAAGUUGGUUUAAGGCGCAAGACUUUAAUUUAUCACUACGAAACCUUGAGAUCGGGCGUUCGACUCGCACCCGGGAGAUUUUUUCCUCGAGCAA [U55C C80A], with at most 0.026; and CUCUCGGUAGCCAAGUUGGUUUAAGGCGCAAGGCUUUAAUUUAUCACUACGAAAUCUUGAGAUCGGGCGUUCGACUCGCCCCCGCGAGAUUUUUUCCUCGAGCAA [A33G G85C], with 0.0351; and CUCUCGGUAGCCAAGUUGGUGUAAGGCGCAAGACUUUAAUUUAUCACUACGAAAUAUUGAGAUCGGGCGUUCGACUCGCCCCCGGGAGAUUUUUUCCUCGAGCAA [U21G C56A], with at most 0.026. Then CUCUCGCUAGCCAAGUUGGUUUAAGGCGGGAGACUUUAAUUUAUCACUACGAAAUCUUGAUAUCGGGCGCUCGACUCGCCCCCGCGAGAUUUUUUCCUCGAGCAA [G7C C29G A30G G61U U70C G85C], with at most 0.026. The result for CUCUCGGUAGCCAAGUUGGUUUAAGGCGCAACACUUUAAUUUAUCACUACGAAAUCUUGAGAUAGGGCGUUCGACUCGCCCCCGGGAGAUUUUUUCCUCGAGCAA [G32C C64A] reads at most 0.026. Consider CGCUCGGUAUCCAAGUUGGUUUAAGGCGCAAGACUUUAAUUUAUCACUACGAAAUCUUGAGAUCGGGCGUUCGACUCGCCGCCGGGAGAUUUUUUCCUCGAGCAA [U2G G10U C81G], for which the nonsense suppression is at most 0.026.

CUGUCGGUAGCCAAGUUGGUUUAAGGCGCAAGACUUUAAUUUAUCACUACGAAAUCUUGACAUCGGGCGAUCGACUCGCCCCCGGGUGAUUUUUUCCUCGAGCAA [C3G G61C U70A A87U]: the nonsense suppression was at most 0.026. Take CUCUCGGUACCCAAGUUGGUUUAAGGCGCAAGACUUUAAUUUAUCACUACGAAAUCUUGAGAUCGGCCGUGCGACUCGCCCCCGGGAGAUUUUUUCCUCGAGCAA [G10C G67C U71G]: the nonsense suppression is at most 0.026.

As for CUCUCGGUAGCCAAGUUGGUUUAAGGCGCAAGACUUUAAUUUAUCACUACGAAAUCCUGAGAUCGUGCGUUCGACUCGCCCCCGGGAGAUUUUUUCCUCGAGCAA [U57C G66U], the nonsense suppression was at most 0.026. The result for CUCCCGGAAGCCAAGUUGGUUUAAGGCGCAAGACUUUAAUUUAUCACUACGAAAUCUUGAGAUCGGGCGUACGACUCGCCCCCGGGAGAUUUUUUCCUCGAGCAA [U4C U8A U71A] reads at most 0.026; that for CUCUCGGUAGCCAAGUUGGUUUAAGGCGCAAGACUUUAAUUUAUCACUACGAAAGCUUGAGAUCGGGCGUUCGACUCGCCACCGGGAGAUUUUUUCCUCGAGCAA [U55G C81A], at most 0.026; that for CUCUCGGUAGCCAAGUUGGUUUAAGGCGCAAGAAUUUAAUUUAUCACUACGAAAUCUUGAGAUGGGGCGUUCGACUCGCCCCCGCGAGAUUUUUUCCUCGAGCAA [C34A C64G G85C], at most 0.026.

Turning to CUCUCGGUAGCCAAGUUGGUUUAAGGCGCACGACUUUAAUUUAUCACUACGAAAUCUUGAGAUCGGGCGUUCGACGCGCCCACGGGAGAUUUUUUCCUCGAGCAA [A31C U76G C82A], the nonsense suppression is at most 0.026. For the variant CUCUCGGUGUCCCAGUUGGUUUAAGGCGCAAGACUUUAAUUUAUCACUACGAAAUCUUGAGAUCGGGCUUUCGACUCGCCCCCGGGAGAUUUUUUCCUCGAGCAA [A9G G10U A13C G69U], the nonsense suppression was at most 0.026.

Turning to CUCUAGGUAGCCAAGGUGGUUUAAGGCGCAAGACUUUAAUUUAUCACUACGAAAUCUUGAGAUCGGGCGUUCGACUCGCCCCCGGGAUAUUUUUUCCUCGAGCAA [C5A U16G G88U], the nonsense suppression was at most 0.026.

As for CUCUCGGUAGCCAAGAUGGUUUAAGGCGCAUGAGUUUAAUUUAUCACUACGAAAUCUUGAGAUAGGGCGUUCGACUCGCCCCGGGGAGAUUUUUUCCUCGAGCAA [U16A A31U C34G C64A C83G], the nonsense suppression was at most 0.026.

CUCUCUGUCGCCAAGUUGGUUUAAGGCGCUAGACUUUAAUUUAUCACUACGAAAUCUUGAGAUCGGGAGUUCGACUCGCCCCCGGGAGGUUUUUUCCUCGAGCAA [G6U A9C A30U C68A A89G]: the nonsense suppression is at most 0.026. The result for CUCUCGGUAGCCAAGUUGGUUGAAGGCGCGAGACUUUAAUUUAUCACUACGAAAUCUUGAGAUCGGGCGUUCGACUCGCCCCCGGGAGAUUUUUUCCUCGAGCAA [U22G A30G] reads 0.781; that for CUCUCGGUAGCCAAGUUCGUUUAAGGCGCAAGACUUUAAUUUAUCACUACGAAAUCUUGAGAUCGGGCGUUUGGCUCGCCCCCGGGAGAUUUUUUCCUCGAGCAA [G18C C72U A74G], at most 0.026.
